{
  "source": "PubChem BioAssay AID1030",
  "about": "(National Center for Advancing Translational Sciences (NCATS), 2008)",
  "note": "Hit rate of the full screen: of about 220,000 compounds, about 16,000 (7.3%) were called active. Inconclusive results, whose numbers are uncertain, are shown with a selection of clear calls. The call rests on the fitted dose curve; in most records, active means well fitted inhibition curve with a large enough effect (not every such curve was filed as active); inconclusive means small, poorly fitted or top-dose-only effect, or another doubt; inactive means no such curve, though single readings can be large or run the other way. Potencies of inconclusive entries are left out as doubtful fits. Potency means the concentration at half of the fitted maximal effect; tags describe the fitted curve by direction and shape.",
  "data": [
    {"target": "Aldehyde dehydrogenase 1A1 (Homo sapiens) (UniProt P00352)", "sequence (P00352 whole entry, looked up)": "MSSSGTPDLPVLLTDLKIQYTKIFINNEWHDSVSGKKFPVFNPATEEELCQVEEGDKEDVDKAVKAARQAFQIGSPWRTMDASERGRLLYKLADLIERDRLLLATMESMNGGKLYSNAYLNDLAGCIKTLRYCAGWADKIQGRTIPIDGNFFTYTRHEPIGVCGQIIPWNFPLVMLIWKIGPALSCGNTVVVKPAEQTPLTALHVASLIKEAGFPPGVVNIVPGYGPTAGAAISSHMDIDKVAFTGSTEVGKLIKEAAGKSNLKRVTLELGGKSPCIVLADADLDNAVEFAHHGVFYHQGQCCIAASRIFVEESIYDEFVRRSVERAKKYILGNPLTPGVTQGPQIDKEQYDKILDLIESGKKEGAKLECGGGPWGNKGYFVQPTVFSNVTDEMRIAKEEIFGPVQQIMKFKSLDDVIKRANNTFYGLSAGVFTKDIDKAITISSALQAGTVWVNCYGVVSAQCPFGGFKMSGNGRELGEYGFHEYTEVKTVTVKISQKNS", "assay": "qHTS Assay for Inhibitors of Aldehyde Dehydrogenase 1 (ALDH1A1)", "conditions": "Purified ALDH1A1, NADH fluorescence, propionaldehyde substrate; series mostly up to 75.3 µM", "values": [
      {"smiles": "COCCn1c(=O)c(-c2cccc(C#N)c2)nc2cnc(OC)nc21", "Potency": "inconclusive [inhibitor, partial curve]"},
      {"smiles": "c1ccc2c(c1)NC1(CCCCC1)n1c-2nc2ccccc21", "Potency": "inconclusive [inhibitor, full curve]"},
      {"smiles": "CC(C)(C)n1nnnc1C(c1cccs1)N1CCN(C(=O)c2ccco2)CC1", "note": "(stereo not drawn)", "Potency": "inactive"},
      {"smiles": "Nc1ccc(-c2ccc3ccccc3n2)cc1", "Potency": "inconclusive [inhibitor, single point]"},
      {"smiles": "CS(=O)(=O)c1ccc(S(=O)CC(=O)Oc2ccc(Cl)cc2)c([N+](=O)[O-])c1", "note": "(stereo not drawn)", "Potency": "inconclusive [inhibitor, single point]"},
      {"smiles": "COC(=O)c1ccccc1NC(=O)c1ccc(COc2cccc3ccccc23)o1", "Potency": "inactive"},
      {"smiles": "O=C(COC(=O)CCC(=O)c1ccc(Cl)cc1)NCc1ccco1", "Potency": "inconclusive [inhibitor, single point]"},
      {"smiles": "CCc1ccc2oc(=O)cc(CN3CCN(c4ccc(F)cc4)CC3)c2c1", "Potency": "inconclusive [inhibitor, single point]"},
      {"smiles": "CCCCn1c(=NC(=O)c2ccc3c(c2)OCO3)c(C#N)cc2c(=O)n3cccc(C)c3nc21", "Potency": "inconclusive [inhibitor, partial curve]"},
      {"smiles": "CC(=O)NC(=S)Nc1sc2c(c1C(N)=O)CCC(C)C2", "note": "(stereo not drawn)", "Potency": "active: 8.91 µM"},
      {"smiles": "CN(C)S(=O)(=O)c1ccc(Cl)c(NC(=O)CSc2nc3c(cc2C#N)C(=O)CCC3)c1", "Potency": "inconclusive [inhibitor, single point]"},
      {"smiles": "C#CCOCCOCCOCCNc1nc(N2CCN(C(=O)[C@H]([C@@H](C)CC)n3cc([C@@H](N)CC(C)C)nn3)CC2)nc(N2CCN(C(=O)[C@H](CCCCN)n3cc([C@@H](N)CO)nn3)CC2)n1", "Potency": "inactive"},
      {"smiles": "O=C(OCc1ccccc1)C1=NNC2C(=O)N(Cc3ccccc3)C(=O)C12", "note": "(stereo not drawn)", "Potency": "inconclusive [inhibitor, partial curve]"},
      {"smiles": "Cc1ccc(C(=O)NC(=S)N2CCN(C(=O)OC(C)(C)C)CC2)cc1Br", "Potency": "inactive"},
      {"smiles": "Cc1cc(S(=O)(=O)NCc2ccc(N3CCN(C)CC3)cc2)c(C)s1", "Potency": "inactive"},
      {"smiles": "COc1ccc(NS(=O)(=O)c2ccc(N3CCOCC3)c(NC(=O)c3ccco3)c2)cc1", "Potency": "inconclusive [inhibitor, partial curve]"},
      {"smiles": "Cc1ccccc1C1CC(=O)Oc2cc(C)c(Cl)c(C)c21", "note": "(stereo not drawn)", "Potency": "inactive"},
      {"smiles": "COc1ccccc1Nc1nc(N)nc(CN2CCC(Cc3ccccc3)CC2)n1", "Potency": "active: 12.6 µM"},
      {"smiles": "Cc1cccc(C(=O)Nc2ccc(O)cc2C(=O)O)c1", "Potency": "inconclusive [inhibitor, single point]"},
      {"smiles": "Cc1cc(-c2ccccc2)nc(N(C)NC(=O)C(C)(C)C)c1S(C)(=O)=O", "Potency": "inactive"},
      {"smiles": "CO/N=C/c1c(-c2ccc(Cl)cc2)nc2cc(C)ccn12", "Potency": "inconclusive [inhibitor, single point]"},
      {"smiles": "O=C(NC1CCCCC1)c1ccc(S(=O)(=O)c2ccccc2Cl)c([N+](=O)[O-])c1", "Potency": "inactive"},
      {"smiles": "Cc1nn(-c2nnc(C)c(=O)[nH]2)c(C)c1SCC(=O)Nc1ccc(C(C)C)cc1", "Potency": "inconclusive [inhibitor, partial curve]"},
      {"smiles": "COCCNC(=O)c1ccccc1NC(=O)c1ccccc1SC", "Potency": "inconclusive [inhibitor, full curve]"},
      {"smiles": "Nc1nc(Cl)cc(Sc2ccc3ccccc3c2)n1", "Potency": "inactive"},
      {"smiles": "NC(=S)NN=C(Cc1ccccc1)Cc1ccccc1", "Potency": "inconclusive [inhibitor, full curve]"},
      {"smiles": "Cc1ccc(NC(=S)NC(=O)/C=C/c2ccc(Cl)cc2)cc1", "Potency": "inconclusive [inhibitor, single point]"},
      {"smiles": "Clc1ccc(-c2nnc3sc(-c4ccccn4)nn23)cc1", "Potency": "inactive"},
      {"smiles": "CCOc1ccccc1-n1c(SCC(=O)NC)nnc1-c1ccco1", "Potency": "inactive"},
      {"smiles": "O=c1c2ccccc2c(C=NCCCN2CCOCC2)c(O)n1Cc1ccccc1", "Potency": "active: 14.1 µM"},
      {"smiles": "CCC(CC)C(=O)N(CCc1ccc(OC)cc1)Cc1nc2ccccc2c(=O)[nH]1", "Potency": "inactive"},
      {"smiles": "Cc1ccc2oc(=O)ccc2c1", "Potency": "inconclusive [inhibitor, single point]"},
      {"smiles": "CCOc1ccc(C(=O)NC2CCN(S(C)(=O)=O)CC2)cc1", "Potency": "inactive"},
      {"smiles": "COc1ccc(C2CC(c3ccc(Cl)cc3Cl)Nc3nc(N)nn32)cc1", "note": "(stereo not drawn)", "Potency": "inconclusive [inhibitor, single point]"},
      {"smiles": "Cc1cc(NC(=O)c2ccccc2)n(-c2nc3ccccc3[nH]2)n1", "Potency": "inconclusive [inhibitor, single point]"},
      {"smiles": "OCCNNC(=S)NC1CC2C=CC1C2", "note": "(stereo not drawn)", "Potency": "inactive"},
      {"smiles": "CC(C)(C)NC(=O)c1ccncc1", "Potency": "inactive"},
      {"smiles": "Cc1sc2nc(-c3cccnc3)nc(Cl)c2c1-c1ccccc1", "Potency": "inconclusive [inhibitor, partial curve]"},
      {"smiles": "N#Cc1nc(-c2ccccc2F)oc1N1CCCC1", "Potency": "inconclusive [inhibitor, partial curve]"},
      {"smiles": "CC1Oc2ccccc2N(CC(=O)c2ccc(F)cc2)C1=O", "note": "(stereo not drawn)", "Potency": "inactive"},
      {"smiles": "COc1ccc(-c2ccc(-c3nnc(Cc4ccc(OC)c(OC)c4)o3)cc2)cc1", "Potency": "inconclusive [inhibitor, partial curve]"},
      {"smiles": "COCCn1c(Cc2cccn2C)nnc1SCC(=O)NCc1ccc2c(c1)OCO2", "Potency": "inactive"},
      {"smiles": "O=C(NCCc1ccccc1)c1nc2c(nnn2Cc2ccccc2Cl)c(=O)[nH]1", "Potency": "inactive"},
      {"smiles": "CCOc1ccc(CN2CCN(c3cc(C)nc4c5c(C)cc(C)nc5nn34)CC2)cc1", "Potency": "inconclusive [inhibitor, partial curve]"},
      {"smiles": "CC(=O)Nc1cccc(NC(=S)Nc2ccc(F)cc2F)c1", "Potency": "inconclusive [inhibitor, single point]"},
      {"smiles": "O=c1c2c(nc(NCCO)n1CC1CCCCC1)-c1ccccc1CC21CCCC1", "Potency": "inconclusive [inhibitor, partial curve]"},
      {"smiles": "CCN1CCN(Cc2c(O)ccc3c2O/C(=C\\C=C\\c2ccccc2OC)C3=O)CC1", "Potency": "inconclusive [inhibitor, single point]"},
      {"smiles": "Cc1ccnc(NC(=O)COC(=O)C2COc3ccccc3O2)n1", "note": "(stereo not drawn)", "Potency": "inconclusive [inhibitor, single point]"},
      {"smiles": "O=C(O)CNC(=S)N(Cc1ccccc1F)C1CCCCC1", "Potency": "inconclusive [inhibitor, single point]"},
      {"smiles": "CN1CCc2c(sc(N)c2C(=O)O)C1", "Potency": "inconclusive [inhibitor, partial curve]"},
      {"smiles": "O=C(N1CCOCC1)N1CCN(C(=O)N(c2ccccc2)c2ccccc2)CC1", "Potency": "inconclusive [inhibitor, partial curve]"},
      {"smiles": "CCc1ccc(OC(=O)c2ccn(CC)n2)cc1", "Potency": "inconclusive [inhibitor, single point]"},
      {"smiles": "COc1ccc(-n2c(=O)c(-c3cn(C)c4ccccc34)nc3cncnc32)cc1", "Potency": "inconclusive [inhibitor, single point]"},
      {"smiles": "COCCn1nnnc1C(c1cc2cc(C)cc(C)c2[nH]c1=O)N1CCN(c2ccccc2F)CC1", "note": "(stereo not drawn)", "Potency": "inconclusive [inhibitor, partial curve]"},
      {"smiles": "Cc1ccc(CN(Cc2ccco2)C(=S)NCC(=O)NCc2cccnc2)cc1", "Potency": "inconclusive [inhibitor, partial curve]"},
      {"smiles": "COC(=O)CSC1=C(C#N)C(c2cccc(OC)c2)CC(=O)N1", "note": "(stereo not drawn)", "Potency": "inactive"},
      {"smiles": "COc1ccc(Nc2nc(N)nc(CN3CCN(c4ccc(F)cc4)CC3)n2)cc1", "Potency": "inconclusive [inhibitor, single point]"},
      {"smiles": "COC(=O)c1nc2n(n1)C(c1ccccc1OC)C1=C(CCCC1=O)N2", "note": "(stereo not drawn)", "Potency": "inconclusive [inhibitor, single point]"},
      {"smiles": "Cc1ccc2c(C)nc(SC(C(=O)c3ccccc3)c3ccccc3)nc2c1", "note": "(stereo not drawn)", "Potency": "inconclusive [inhibitor, full curve]"},
      {"smiles": "O=C(O)CCSc1nc2ccccc2c(=O)[nH]1", "Potency": "inactive"},
      {"smiles": "Cc1nc2ncnn2c(N2CCN(C(=O)Cc3cccs3)CC2)c1C", "Potency": "active: 7.94 µM"},
      {"smiles": "C=CCNC(=S)Nc1ccc(C)c(S(=O)(=O)N2CCCCC2)c1", "Potency": "inconclusive [inhibitor, single point]"},
      {"smiles": "CNC/C(Cl)=N/S(=O)(=O)c1ccc(C)cc1", "Potency": "inconclusive [inhibitor, single point]"},
      {"smiles": "O=C(NC(=S)Nc1ccc(F)cc1)c1ccc2c(c1)OCCO2", "Potency": "active: 12.6 µM"},
      {"smiles": "COc1ccccc1N1CCN(c2nc(-c3ccccc3)cc(C(F)(F)F)n2)CC1", "Potency": "inactive"},
      {"smiles": "c1ccc(C(c2ccccc2)N2CCN(Cc3nnnn3C3CCCC3)CC2)cc1", "Potency": "active: 11.2 µM"},
      {"smiles": "CC(=O)N1CSCC1C(=O)N1CCN(c2ccc(N3CCOCC3)nn2)CC1", "note": "(stereo not drawn)", "Potency": "inconclusive [inhibitor, partial curve]"},
      {"smiles": "COc1cc(/C=N/NC(=O)c2cccs2)ccc1OCc1ccccc1", "Potency": "inconclusive [inhibitor, single point]"},
      {"smiles": "CC(C)C(C)(C#N)NC(=O)CSc1nnc(-c2ccncc2)n1Cc1ccccc1", "note": "(stereo not drawn)", "Potency": "inactive"},
      {"smiles": "Cc1cc(-c2cn3ccccc3n2)c(C)n1-c1ccccc1", "Potency": "inconclusive [inhibitor, single point]"},
      {"smiles": "Cc1ccc2oc(=O)cc(/C=C/c3ccccc3)c2c1", "Potency": "inconclusive [inhibitor, single point]"},
      {"smiles": "CN(C)c1nc(NS(=O)(=O)c2ccc(Cl)cc2)nc(N(C)C)n1", "Potency": "inactive"},
      {"smiles": "O=C1OCCC1Sc1nnc(-c2cccc(Br)c2)o1", "note": "(stereo not drawn)", "Potency": "inconclusive [inhibitor, single point]"}
    ]}
  ]
}
